# Test results as given in PubChem BioAssay AID1347165 (National Center for Advancing Translational Sciences (NCATS), 2019).
# The campaign covered roughly 220,000 compounds. About 5,700 (2.6%) were called active. Inconclusive means that the source gave no clear call. Such entries were picked first, then a sample of the others. Calls follow the shape of the dose curve; as a rule, active = well fitted inhibition curve with a large enough effect; inconclusive = small, poorly fitted or top-dose-only effect; inactive = no such curve, though single readings can be large or run the other way. Potencies beside an inconclusive call are fits to weak or partial responses and may not hold up.
# Target: Lysine-specific demethylase 5B (Homo sapiens) (UniProt Q9UGL1)
# Sequence of UniProt Q9UGL1 (Q9UGL1 whole entry, looked up): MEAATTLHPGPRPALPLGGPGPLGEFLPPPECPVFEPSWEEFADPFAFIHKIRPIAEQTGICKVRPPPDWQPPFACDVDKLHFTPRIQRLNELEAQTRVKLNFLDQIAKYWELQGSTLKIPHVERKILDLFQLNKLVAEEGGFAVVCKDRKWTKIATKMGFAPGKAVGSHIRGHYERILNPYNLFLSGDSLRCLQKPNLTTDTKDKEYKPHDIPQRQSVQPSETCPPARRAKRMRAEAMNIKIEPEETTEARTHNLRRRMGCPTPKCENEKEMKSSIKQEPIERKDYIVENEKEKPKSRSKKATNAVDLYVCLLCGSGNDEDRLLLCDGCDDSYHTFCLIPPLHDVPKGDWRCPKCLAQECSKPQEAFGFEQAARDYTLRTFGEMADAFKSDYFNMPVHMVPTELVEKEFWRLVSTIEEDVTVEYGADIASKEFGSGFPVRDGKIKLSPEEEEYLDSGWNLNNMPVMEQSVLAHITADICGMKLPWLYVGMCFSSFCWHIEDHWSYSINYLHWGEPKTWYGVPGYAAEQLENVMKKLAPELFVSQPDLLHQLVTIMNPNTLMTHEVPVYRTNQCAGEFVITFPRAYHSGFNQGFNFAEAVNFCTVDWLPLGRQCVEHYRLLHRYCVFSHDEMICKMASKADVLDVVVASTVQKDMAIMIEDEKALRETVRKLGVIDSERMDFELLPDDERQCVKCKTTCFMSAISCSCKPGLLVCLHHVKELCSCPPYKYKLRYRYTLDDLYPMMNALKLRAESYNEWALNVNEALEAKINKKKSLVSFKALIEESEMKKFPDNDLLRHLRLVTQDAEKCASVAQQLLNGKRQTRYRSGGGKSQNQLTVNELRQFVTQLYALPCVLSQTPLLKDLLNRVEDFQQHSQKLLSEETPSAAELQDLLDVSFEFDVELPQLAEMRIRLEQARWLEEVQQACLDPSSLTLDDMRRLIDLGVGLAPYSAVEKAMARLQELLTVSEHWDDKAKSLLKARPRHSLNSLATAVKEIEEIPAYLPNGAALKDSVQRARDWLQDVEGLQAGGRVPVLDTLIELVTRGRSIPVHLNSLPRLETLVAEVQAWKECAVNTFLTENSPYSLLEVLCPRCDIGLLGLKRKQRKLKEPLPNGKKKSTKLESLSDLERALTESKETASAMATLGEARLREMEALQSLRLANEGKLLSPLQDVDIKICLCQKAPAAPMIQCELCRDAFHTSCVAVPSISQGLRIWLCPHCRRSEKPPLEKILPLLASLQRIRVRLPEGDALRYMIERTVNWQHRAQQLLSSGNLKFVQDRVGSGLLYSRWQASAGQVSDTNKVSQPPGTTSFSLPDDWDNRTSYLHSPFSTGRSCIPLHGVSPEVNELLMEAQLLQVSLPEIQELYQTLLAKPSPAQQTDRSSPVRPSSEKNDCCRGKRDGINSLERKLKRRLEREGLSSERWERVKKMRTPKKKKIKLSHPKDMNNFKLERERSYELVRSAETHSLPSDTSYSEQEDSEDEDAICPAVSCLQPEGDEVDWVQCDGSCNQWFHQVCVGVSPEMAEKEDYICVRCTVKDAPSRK
# Test: Primary screen for KDM5B Histone Demethylases FDH-coupled qHTS; also: nearly all actives have a fitted effect of over 70% in size; as to activity change, negative = inhibition: 0% is about no effect
# Conditions: FDH-coupled NADH fluorescence (FDH is formaldehyde dehydrogenase); activity change, negative = inhibition: at 57.7 µM (top of the series) unless noted
# Outline: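 Measured: NADH fluorescence change, 30 min, RT. System: KDM5BΔAP 200 nM final, H3K4me3 peptide, α-KG, Fe(II), ascorbate, NAD⁺ plus FDH, pH 7.5 HEPES. Compounds: titrated, 10 min pre-incubation with enzyme.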
# Potency is read from the fitted curve at half-maximal effect; tags tell the direction and shape of the fitted curve.
SMILES,Potency,"activity change, negative = inhibition"
COc1ccc(CN2CCNc3cnc(Oc4ccccc4)cc3C2)cc1O,"inconclusive: 28.2 µM [inhibitor, partial curve]",–
CN1CCC2(C1)CN(CC1CC1)c1ccc(C(=O)NC3CCCCC3)cc12 (stereo not drawn),active: 39.8 µM,–
CCOc1cccc(CNC(=O)[C@H]2CCC[C@H]2NC(=O)c2cnc(C)cn2)c1,inactive,–
N#Cc1nc(-c2ccc(F)cc2)oc1N1CCN(C(=O)c2ccco2)CC1,"inconclusive: 1.78 µM [inhibitor, partial curve, poor fit]",–
C/C(=N/NC(=S)Nc1ccc(SC(F)F)cc1)c1cccc(C(F)(F)F)c1,"inconclusive: 39.8 µM [inhibitor, single point]",–
O=C(O)[C@H]1C[C@@H](C(=O)NCc2ccncc2)CN(C2CCOCC2)C1,"inconclusive: 15.8 µM [inhibitor, single point]",–
CC(C)CCN(C(=O)Nc1ccccc1)C(C)c1cccs1 (stereo not drawn),"inconclusive: 2 µM [inhibitor, full curve, poor fit]",–
COc1ccc(C(=O)N/C(=C\c2ccc(-c3cccc(C(F)(F)F)c3)o2)C(=O)NC(C)C)cc1,inactive,–
CCC[C@H]1CN(C(=O)c2cc(=O)[nH]c3cc(F)ccc23)C[C@@H]1N,"inconclusive: 28.2 µM [inhibitor, partial curve, poor fit]",–
O=c1c2nc(-c3ccsc3)ccc2ncn1Cc1ccccc1,active: 39.8 µM,–
Cc1ccc2c(n1)N(C)[C@H](CO)CCN(Cc1cccc3c1OCO3)C2,"inconclusive: 31.6 µM [inhibitor, single point]",–
OCC1CCN(c2ccccc2)C1 (stereo not drawn),"inconclusive: 12.6 µM [inhibitor, partial curve, poor fit]",–
COc1cc(OC)cc(C(=O)Nc2ccc(NS(=O)(=O)c3ccc4c(c3)OCCCO4)cc2)c1,inactive,–
COc1cc(NS(=O)(=O)c2cccc(Cl)c2Cl)c(C(=O)O)cc1OC,inactive,–
O=C(Nc1ccc2ncnc(N3CCCCC3)c2c1)c1ccc(F)cc1,inactive,–
CC(=O)Nc1cc(F)c(F)cc1NC(=O)CCc1c[nH]c2ccccc12,inactive,–
O=C(CCc1ncc(-c2ccccc2)o1)NCc1ccco1,inactive,–
O=C(Nc1ccc(Br)cc1)c1ccc(F)c(S(=O)(=O)N2CCc3ccccc32)c1,"inconclusive: 31.6 µM [inhibitor, single point]",–
O=C(Nc1cc(F)c(F)c(F)c1)N1CCC(Oc2ncccc2C(=O)N2CCCCC2)C1 (stereo not drawn),inactive,–
CCCCCCNC(=S)Nc1cccc(Cl)c1,inactive,–
CC(C)CN1C(=O)C(C)(C)[S+](=O)([O-])[C@H]2CN(c3ccc(Oc4ccccc4)cc3)C[C@@H]21,"inconclusive: 39.8 µM [inhibitor, partial curve, poor fit]",–
O=C(c1ccccc1F)N1CCC2(C1)C(=NC1CCCC1)NC(=O)N2c1cc(F)cc(F)c1 (stereo not drawn),inactive,–
COCC1CN(C(C)=O)CC12CCN(Cc1cccc(OC)c1)CC2 (stereo not drawn),"inconclusive: 39.8 µM [inhibitor, partial curve, poor fit]",–

SMILES,Potency,"activity change, negative = inhibition"
Cc1ccc(CN2CCN(C3CCN(C(=O)Nc4ccc(C)cc4Cl)CC3)C(=O)C2=O)cc1,–,inconclusive: -30.4% [inhibitor]
CCn1cc(CN2CCN(C(=O)c3cccs3)CC2)ccc1=O,active: 11.2 µM,–
COc1cccc(CCC(=O)N2CCC3(CC2)NC(=O)N(c2ccccc2)N3)c1,"inconclusive: 14.1 µM [inhibitor, partial curve, poor fit]",–
Cc1ccc(CN2CCCN(Cc3ccncc3)C(c3ccccc3)CC(=O)NCC2)o1 (stereo not drawn),"inconclusive: 20 µM [inhibitor, partial curve, poor fit]",–
CC(C)(C)NC(=O)c1ccccc1SCc1ccc(F)cc1,inactive,–
CCCCNS(=O)(=O)c1ccc(C)c(-c2nnc3c4ccccc4c(C)nn23)c1,"inconclusive: 31.6 µM [inhibitor, single point]",–
CCCNC(=O)c1ccc2c(=O)n(CCc3ccccc3)c(SCC#N)nc2c1,inactive,–
O=C(NCCN1CCN(Cc2ccccc2)CC1)Nc1cc(Cl)cc(Cl)c1,"inconclusive: 39.8 µM [inhibitor, single point]",–
COc1ccc2cc(C(=O)NCCNC(C)=O)c(C)nc2c1,"inconclusive: 25.1 µM [inhibitor, partial curve, poor fit]",–
O=C(NCc1ccccc1)c1ccccc1NS(=O)(=O)c1ccc2[nH]c(=O)[nH]c2c1,"inconclusive: 39.8 µM [inhibitor, single point]",–
CC(NC(=O)c1ccccc1I)C1CC2CCC1C2 (stereo not drawn),inactive,–
CCC(CC)NC(=O)CN(C)CC(=O)Nc1ccc(Cl)c(C(F)(F)F)c1,"inconclusive: 12.6 µM [inhibitor, partial curve, poor fit]",–
COc1ccc(F)cc1-c1cccc(COc2ccc3c(cnn3CC[S+](C)(=O)[O-])c2)c1,"inconclusive: 25.1 µM [inhibitor, partial curve]",–
CC(C)NC(=O)c1cc(C(C)(C)C)nc2c1cnn2C,"inconclusive: 126 µM [inhibitor, partial curve, poor fit]",–
COc1ccccc1C(=O)NCCn1ccn2nc(-c3ccc(C)c(C)c3)cc2c1=O,active: 28.2 µM,–
CCOC(=O)Cn1c(=O)n(C2CCCCC2)c2nc(-c3ccc(C(C)C)cc3)nc(C(N)=O)c21,"inconclusive: 25.1 µM [inhibitor, partial curve, poor fit]",–
Cc1ccc2c(CN3CCN(C(=O)c4ccc(Br)cc4)CC3)cc(=O)oc2c1,"inconclusive: 17.8 µM [inhibitor, partial curve, poor fit]",–
CCCCNc1ncc(C(=O)O)c(COC)n1,"inconclusive: 31.6 µM [inhibitor, partial curve, poor fit]",–
COCCn1c(=O)c2c(n1Cc1ccccc1)CN(Cc1ccc3c(c1)CCO3)CC2,"inconclusive: 44.7 µM [inhibitor, partial curve, poor fit]",–
COCCn1cc(C(=O)NCCCOC(C)C)c2c3ccccc3n(C)c2c1=O,"inconclusive: 12.6 µM [inhibitor, partial curve, poor fit]",–
COc1ccc(CNC(=O)Cc2ccc(NC(=O)N3CCSc4ncccc43)cc2)cc1,"inconclusive: 39.8 µM [inhibitor, single point]",–
CCOc1ccc(NC(=O)C2CC(=O)N(c3n[nH]c4cc(Br)ccc34)C2)cc1 (stereo not drawn),"inconclusive: 28.2 µM [inhibitor, single point]",–
COc1cc(F)ccc1-c1ccc2c(n1)c(=O)ncn2Cc1ccccc1,active: 35.5 µM,–

SMILES,Potency,"activity change, negative = inhibition"
CCCCOc1ccc(NC(=O)CC)c2cccnc12,inactive,–
COc1cc(CNc2ncnc3c2[nH]c2ccc(C)cc23)cc(OC)c1,"inconclusive: 31.6 µM [inhibitor, partial curve, poor fit]",–
Cc1oc(C(C)(C)C)cc1C(=O)N1CCN(c2ncccc2C(F)(F)F)CC1,"inconclusive: 39.8 µM [inhibitor, single point]",–
Cc1cccc(Nc2nc(N)c(C(=O)c3ccccc3Cl)s2)c1,inactive,–
CC(C)(C)N1Cc2nnn(Cc3ccccc3)c2-c2cc(N3CCCCC3)ccc2S1(=O)=O,"inconclusive: 35.5 µM [inhibitor, partial curve, poor fit]",–
COc1cccc(Nc2c(-c3cccc(O)c3)nc3cccc(C)n23)c1,"inconclusive: 22.4 µM [inhibitor, partial curve, poor fit]",–
O=S1(=O)c2c(NCc3ccco3)cccc2Oc2ccccc2CN1Cc1cn(Cc2cccc(C(F)(F)F)c2)nn1,"inconclusive: 17.8 µM [inhibitor, partial curve, poor fit]",–
O=S(=O)(c1cccc2ccccc12)N1CCN(c2ccc(F)cc2)CC1,inactive,–
O=C1CC2(CCN(C(=O)c3cnc4ccccn4c3=O)C2)C(=O)N1 (stereo not drawn),"inconclusive: 31.6 µM [inhibitor, partial curve, poor fit]",–
Cc1noc([C@@H](C)NC(=O)c2ccc(Cl)cc2)c1C(=O)O,inactive,–
O=C(Nc1cc2c(cc1C(=O)c1ccccc1Cl)OCCO2)c1ccccc1,"inconclusive: 3.55 µM [inhibitor, partial curve, poor fit]",–
CCCCCc1ccc(N=Cc2ccc(OCC(C)CC)cc2O)cc1 (stereo not drawn),inactive,–
NC(=O)c1cccc(-c2cc3c(cn2)CN(Cc2ccccc2)CCN3)c1,active: 31.6 µM,–
CN(C)S(=O)(=O)c1ccc(NC(=O)CN2CCN(c3ccccc3O)CC2)cc1,"inconclusive: 39.8 µM [inhibitor, single point]",–
CC(NC(=O)CSc1ccc2c(c1)OCCCO2)c1cccc2ccccc12 (stereo not drawn),inactive,–
CC1CCC(Nc2nc3c(-c4cccc(C(F)(F)F)c4)nnn3c3ccccc23)CC1 (stereo not drawn),"inconclusive: 17.8 µM [inhibitor, partial curve, poor fit]",–
CCOc1ccc(C(=O)Nc2cnc3ccccc3c2)cc1OC,inactive,–
CCOC(=O)c1sc(NC(=O)C[C@H]2NC(=O)c3ccccc3NC2=O)nc1C,inactive,–
COc1cc(OC)c(NC(=O)CCc2c(C)nc3cc(-c4ccccc4OC)nn3c2C)cc1Cl,"inconclusive: 17.8 µM [inhibitor, partial curve, poor fit]",–
CC(C)OC(=O)c1c(NC(=O)C2c3ccccc3Oc3ccccc32)sc2c1CCCC2,"inconclusive: 15.8 µM [inhibitor, partial curve, poor fit]",–
Cc1ccccc1OCC(=O)NCc1ccc(Cn2cccn2)cc1,inactive,–
C(=N\N=C(c1ccccc1)c1ccccc1)/c1cn(-c2cccs2)nc1-c1ccccc1,inactive,–
